Hit rate of the full screen: of about 310,000 compounds, about 14,000 (4.5%) showed an effect of 50% or more. The effect is printed as a negative number. The list shows a part of the results.
biological target: human ether-à-go-go-related gene (hERG) potassium channel (human, UniProt Q12809); assay: primary screen, population patch clamp on CHO cells stably expressing hERG
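Further: peak tail current of the secondary pulse compared with the same well before compound.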

Sequence of human ether-à-go-go-related gene (hERG) potassium channel (Q12809 whole entry, looked up): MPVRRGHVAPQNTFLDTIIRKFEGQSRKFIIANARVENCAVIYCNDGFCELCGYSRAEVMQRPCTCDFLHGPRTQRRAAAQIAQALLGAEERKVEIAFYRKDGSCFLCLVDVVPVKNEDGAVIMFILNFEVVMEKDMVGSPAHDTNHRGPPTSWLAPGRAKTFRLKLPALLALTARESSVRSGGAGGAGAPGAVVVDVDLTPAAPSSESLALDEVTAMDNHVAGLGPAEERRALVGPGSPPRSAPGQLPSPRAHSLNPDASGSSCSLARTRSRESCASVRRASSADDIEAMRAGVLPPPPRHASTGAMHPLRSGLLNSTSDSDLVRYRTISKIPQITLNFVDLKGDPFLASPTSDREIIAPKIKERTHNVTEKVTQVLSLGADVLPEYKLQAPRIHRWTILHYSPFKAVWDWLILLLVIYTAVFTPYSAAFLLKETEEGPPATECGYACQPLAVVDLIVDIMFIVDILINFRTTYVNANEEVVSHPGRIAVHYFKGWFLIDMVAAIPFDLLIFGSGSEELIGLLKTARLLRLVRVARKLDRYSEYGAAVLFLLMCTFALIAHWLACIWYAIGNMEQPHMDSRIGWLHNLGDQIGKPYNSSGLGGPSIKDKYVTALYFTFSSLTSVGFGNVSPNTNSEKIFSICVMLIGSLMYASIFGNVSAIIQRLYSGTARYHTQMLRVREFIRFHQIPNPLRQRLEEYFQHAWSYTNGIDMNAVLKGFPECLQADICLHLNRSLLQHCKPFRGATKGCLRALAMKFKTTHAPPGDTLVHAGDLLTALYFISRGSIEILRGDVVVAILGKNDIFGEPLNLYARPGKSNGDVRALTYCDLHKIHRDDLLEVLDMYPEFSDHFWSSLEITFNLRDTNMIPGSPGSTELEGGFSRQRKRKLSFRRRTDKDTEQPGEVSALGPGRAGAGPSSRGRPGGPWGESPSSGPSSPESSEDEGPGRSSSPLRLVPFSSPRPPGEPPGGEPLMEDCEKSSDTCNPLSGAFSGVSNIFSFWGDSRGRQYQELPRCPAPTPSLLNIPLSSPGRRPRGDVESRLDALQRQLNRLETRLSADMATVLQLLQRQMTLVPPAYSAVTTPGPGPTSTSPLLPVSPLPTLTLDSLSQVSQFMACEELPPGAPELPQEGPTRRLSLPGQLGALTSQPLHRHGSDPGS

Structure (SMILES) | hERG current change (%, negative = inhibition) at 10uM [%]
CCOc1cccc(CN2CCCC(C(=O)c3cccc(C(F)(F)F)c3)C2)c1O (centres unmarked) | -67.9
CC(C)NC(=O)NC(=O)COC(=O)/C=C/c1ccc2c(c1)OCO2 | 5.94
Cc1ccccc1OCCNC(=O)c1ccc2ccccc2n1 | -20.8
Cc1cc(C)cc(NC(=O)CN2CCCN(S(=O)(=O)c3ccc(Br)s3)CC2)c1 | -6.01
CC(=O)NCC(=O)N(C)C(C(=O)Nc1ccc(C(C)C)cc1)c1ccccc1 (centres unmarked) | 2.34
O=C(C1=C(O)C(=O)N(Cc2ccco2)C1c1ccccc1F)c1cccs1 (centres unmarked) | 10.6
COC(=O)Cn1c(=NC(=O)CSC(C)=O)sc2ccccc21 | -12.2
CCOC(=O)CC(=O)CSc1nc2c(cc1C#N)CCC2 | 14.5
COC(=O)[C@H](CCSC)NC(=O)NC1CC1 | 23
NC(=O)CSc1nnc(NC(=O)c2ccc3ccccc3c2)s1 | -6.24
CC(=O)Nc1ccc(CN2CCc3c([nH]c4ccccc34)C2c2ccccn2)cc1 (centres unmarked) | -38.5
COC(=O)C1CCN(CCCOc2ccc(CN3CCN(c4ccc([N+](=O)[O-])cc4)CC3)cc2)CC1 | -74.3
COCC1CCN(Cc2cn(C)nc2-c2cccc(Cl)c2)C1 (centres unmarked) | -2.21
CC1=CC(C)(C)NC(=S)N1c1cccc(C)c1 | 4.62
CCOC(=O)N1CCN(c2cc(N3CCOCC3)c(F)cc2[N+](=O)[O-])CC1 | -18.2
CC(C)Oc1ccc(C(=O)Nc2ccc(S(=O)(=O)N3CCN(C)CC3)cc2)cc1 | 4.77
Cc1cc(C)cc(Nc2cnn(C34CC5CC(CC(CC(=O)O)(C5)C3)C4)c(=O)c2Cl)c1 | 5.39
Cn1c(N)c(C(=O)CSc2nnc(-c3c[nH]c4ccccc34)n2C2CC2)c(=O)[nH]c1=O | 5.81
Cn1c(CN2CCOCC2)nc2cc(NC(=O)c3ccccc3Cl)ccc21 | -10.4
CC1(C)Cc2nc(N3CCCC3)c(C#N)cc2CO1 | -6.01
COc1ccc(CSCC(=O)N/N=C/c2ccc(OCC(=O)N3CCCCC3)cc2)cc1 | 10.2
CCOC(=O)N1CCN(C(=O)CCn2nc(-c3ccc(Cl)cc3)ccc2=O)CC1 | -46.2

Structure (SMILES) | hERG current change (%, negative = inhibition) at 10uM [%]
COC(=O)C1=NN(C(=O)c2cccc(Cl)c2)C(O)(C(C)(C)C)C1 (centres unmarked) | 8.11
CN(Cc1nc2ccccc2c(=O)[nH]1)C(=O)c1ccc(NC(=O)CSc2nnnn2C)cc1 | 5.42
Cc1ccc(OCCCCn2c(CO)nc3ccccc32)cc1 | -14.6
CN=C1S/C(=C\c2cccc(Cl)c2Cl)C(=O)N1C | -2.41
O=C(c1ccccc1)N1CCOC12CCN(c1ncc(C(F)(F)F)cc1Cl)CC2 | 20.8
O=C1CCc2cc(S(=O)(=O)NCc3ccccc3Cl)cc3c2N1CC3 | -12.9
COc1ccccc1Nc1nc(-c2ccccc2)nc2ccccc12 | 23.5
O=C1CCCC2=C1C(c1ccc(O)cc1)c1c(ccc3ccccc13)N2 (centres unmarked) | -23.9
C[N+]12CCC(CC1)C(C(O)(c1cccc(Cl)c1)c1cccc(Cl)c1)C2.[I-] (centres unmarked) | 13.6
COc1ccc(S(=O)(=O)N(CCCN2CCOCC2)Cc2ccc(OC)c(OC)c2)cc1 | -39.9
O=S(=O)(Nc1ccccc1Cl)c1ccc(-c2ccccn2)s1 | 10.1
CC(C)(C)Nc1nc(NCc2cccnc2)nc(N2CCOCC2)n1 | 4.02
C=CCn1c(SCCCCCC)nc(O)cc1=O | -4
COc1cc(/C=N/N=C(\N)c2nonc2N)ccc1O | 5.38
Cc1ccccc1CN1CCN(CC(=O)NCc2ccccc2)C1=O | 8.69
Cc1ccc(/C=C/C2=Cc3c(sc(NC(=O)CSc4n[nH]c(N)n4)c3C#N)C(C)(C)C2)o1 | 23.6
COc1ccc(-c2cc(=O)oc3cc(OCC(=O)N(C)C)ccc23)cc1 | -26.1
C/C(CC(=O)Nc1ccc(C)c(Cl)c1)=N\NC(=O)c1ccccn1 | 17.3
Cc1ccc(NC(=S)N2C3CCCC2CC(NC(=O)C2CC2)C3)cc1C (centres unmarked) | -8.35
CC1CN(CC(O)COc2ccc(C(C)C)cc2)CC(C)O1.Cl (centres unmarked) | -14.3
COc1cc(/C=N/Nc2nc3ccccc3s2)cc([N+](=O)[O-])c1O | -6.74
S=c1[nH]nc(-c2cccnc2)n1C1CCCCC1 | 16.5

— article PMC4336329 (PLoS ONE, 2015)
